According to PubChem BioAssay AID488969 (Vanderbilt High Throughput Screening Facility, 2010):
In all, about 110,000 compounds were measured (“z-score”: median about -0.1, highest 2% from about 2 on). The list shows a part of the results. The source made the active and inactive calls.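 Rule for the calls: active = z-score in the third read window above 3 or below -3; inactive = the rest.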

biological target: Metabotropic glutamate receptor 8 (Rattus norvegicus) (UniProt P70579); assay: mGluR8 Gi/Go-coupled signaling modulation – cell-based, rat, thallium flux, HTS, primary screen (AID 488969); details: HEK293 rat mGluR8, GIRK (G protein-gated inwardly rectifying potassium channel) thallium flux, FluoZin2; at 10 µM; stronger effect = higher value; submaximal glutamate (EC20) added with thallium
Sequence of UniProt P70579 (P70579 whole entry, looked up): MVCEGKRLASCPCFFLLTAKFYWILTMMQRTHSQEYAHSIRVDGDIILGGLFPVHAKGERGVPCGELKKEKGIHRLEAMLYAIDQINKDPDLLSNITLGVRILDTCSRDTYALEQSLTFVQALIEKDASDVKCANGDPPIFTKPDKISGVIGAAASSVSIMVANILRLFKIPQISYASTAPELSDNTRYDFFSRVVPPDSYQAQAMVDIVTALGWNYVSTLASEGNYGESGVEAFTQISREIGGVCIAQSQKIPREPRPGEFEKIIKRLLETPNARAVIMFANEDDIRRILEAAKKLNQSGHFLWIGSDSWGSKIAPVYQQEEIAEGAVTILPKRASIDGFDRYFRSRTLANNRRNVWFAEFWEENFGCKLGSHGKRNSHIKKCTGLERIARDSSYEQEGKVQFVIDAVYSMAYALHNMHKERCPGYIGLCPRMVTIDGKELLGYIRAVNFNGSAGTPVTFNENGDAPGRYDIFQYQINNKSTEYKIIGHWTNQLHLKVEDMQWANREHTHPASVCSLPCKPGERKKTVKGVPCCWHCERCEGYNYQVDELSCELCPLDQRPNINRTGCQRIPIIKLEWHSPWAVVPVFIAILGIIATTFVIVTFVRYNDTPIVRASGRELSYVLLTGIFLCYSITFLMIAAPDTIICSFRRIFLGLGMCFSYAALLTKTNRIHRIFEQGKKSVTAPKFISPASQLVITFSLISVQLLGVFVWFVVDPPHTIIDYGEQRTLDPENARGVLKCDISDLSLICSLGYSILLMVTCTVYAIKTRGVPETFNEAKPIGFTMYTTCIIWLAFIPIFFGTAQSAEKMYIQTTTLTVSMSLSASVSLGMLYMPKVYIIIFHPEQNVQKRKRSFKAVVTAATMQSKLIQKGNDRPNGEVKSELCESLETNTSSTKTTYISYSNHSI

Compound	z-score
O=C(NCc1ccccn1)C1CCCN(S(=O)(=O)c2ccccc2)C1 (stereo not drawn)	-0.251
COc1ccccc1COC(=O)Nc1c(C)nn(C)c1Cl	-0.0526
COc1ccccc1-n1c(CCn2nc(C)c(Br)c2C)n[nH]c1=S	-0.472
NC(=O)C1(NC(=O)[C@@H]2CC3(CC(c4cccc(NC(=O)[C@@H]5CCC(=O)N5)c4)=NO3)CN2C(=O)Cc2ccc(Cl)cc2)CC1 (stereo partly drawn)	0.0125
CCOc1ccc(=O)n(-c2ccccc2)n1	0.497
CCCc1nnc(NC(=O)CN2CCOCC2)s1	0.202
Cc1ccc(-c2nc(N3CCOCC3)sc2C(=O)N2CCOCC2)cc1	-0.276
CC(C)COP(=O)(OCC(C)C)C(O)c1ccccc1F (stereo not drawn)	-0.0331
CC(/C=N/NC(=O)c1cc(-c2cccs2)[nH]n1)=C\c1ccccc1	-0.431
O=C(CCN1C(=O)S/C(=C\c2ccccc2)C1=O)N1CCOCC1	0.337
CC(C)c1ccc(N(C(=O)c2cc3ccccc3oc2=O)C2C=CS(=O)(=O)C2)cc1 (stereo not drawn)	-0.191
Nc1cc(N)c(OCC(F)(F)F)cc1OCC(F)(F)F	-0.00384
O=C(CCN1C(=O)c2ccccc2C1=O)N1CCC(c2ccccc2)C1 (stereo not drawn)	0.282
O=C(NCc1ccccc1)c1ccc(Oc2ccc(C(=O)NCc3ccccc3)cc2)cc1	0.287
COc1cc(C(=O)Nc2nc3ccccc3s2)ccc1OCc1c(C)noc1C	-0.121
COc1ccc(NS(=O)(=O)c2coc(C(N)=O)c2)cc1Cl	0.283
O=c1cc(-c2ccccc2)[nH]c2ccccc12	-0.912
CCn1c(-c2ccc(OC)c(OC)c2)n[nH]c1=S	0.0812
COc1ccccc1Oc1nc2c(c(=O)n(Cc3ccccc3F)c(=O)n2C)n1C	-0.585
COc1ccc(-c2[nH]ncc2/C=C(/C#N)C(=O)NC2CCCCCC2)cc1	-0.264
Cc1ccc2c(c1)C(=O)N(CCCCO)C2=O	-0.0574
COCCn1c(COc2ccc(Cl)cc2)nnc1SCC(N)=O	0.434
O=C(OCC(=O)c1ccc[nH]1)c1ccc(S(=O)(=O)N2CCCCC2)cc1	0.0988

Compound	z-score
CC(C)c1nnc(SCC(=O)N2CCc3ccccc32)n1C	0.469
CCN(CC)CCCNC(=S)N(Cc1ccco1)Cc1cc2cc3c(cc2[nH]c1=O)OCCO3	-0.0165
COc1ccc(CN(CCC#N)C(=S)NC(=O)c2ccccc2)cc1	active: 4.49
O=C(Nc1nc(-c2ccc(Cl)cc2)cs1)c1cccnc1	-0.375
CN=Cc1cc(-c2ccccc2)sc1O	0.0198
CO/N=C/c1cc([N+](=O)[O-])ccc1Sc1ccc(C)cc1	0.195
O=C(COc1ccccc1F)Nc1nnc(-c2ccncc2)s1	-0.00228
O=C(COC(=O)c1ccc(S(=O)(=O)NCc2ccco2)cc1)NCC1CCCCC1	0.0929
COc1ccc2oc(=O)c(C(=O)N3CCCc4ccccc43)cc2c1	-0.203
COC(=O)[C@H](CCSC)NC(=O)NCc1cccs1	-0.717
COCCN1C(=O)C(=O)/C(=C(/O)c2ccc3c(c2)OCCO3)C1c1ccc(C(=O)OC)cc1 (stereo not drawn)	0.269
COc1ccc(C)cc1N(C)C(=O)c1coc(=O)c2ccccc12	-0.0905
Cc1cc(C(=O)COC(=O)CNC(=O)c2ccc(F)cc2)c(C)n1Cc1ccco1	-0.438
Cc1cc(C(=O)COC(=O)c2ccc3c(c2)OCO3)c(C)n1Cc1cccs1	-0.202
COc1ccc(CSc2nnnn2-c2ccccc2)cc1	-0.555
CC1CN(C(=O)c2cc3c(s2)CCC3)CC(C)O1 (stereo not drawn)	0.0626
COc1ccc(S(=O)(=O)NCCCCNS(=O)(=O)c2ccc(OC)cc2)cc1	-0.0286
CCCCCCSc1nc(O)c(C2OC(=O)c3c2ccc(OC)c3OC)c(=O)n1CC (stereo not drawn)	1.04
Cc1nc2ncnn2c(C)c1Cc1ccccc1Cl	-0.0847
O=C(Nc1ccon1)c1sc2ccccc2c1Cl	0.0961
CCOC(=O)Cc1csc(NC(=S)NC(=O)c2ccccc2C)n1	active: 9.08
COc1ccc(NC(=O)c2ccc(S(=O)(=O)N3CCOCC3)cc2)c(OC)c1	-0.369
Cc1ccccc1CN(c1ccc(C(=O)N2CCc3ccccc3C2)cc1)S(C)(=O)=O	-0.175

Compound	z-score
O=C(c1cc(-c2cccs2)on1)N1CCN(c2ccc(F)cc2)CC1	-0.974
CCOc1cc(C(=O)Nc2ccc(F)cc2)cc(Br)c1OC	-0.0681
COc1cc(OC)cc(OCC(O)Cn2cnc3cc(C)c(C)cc32)c1 (stereo not drawn)	-0.275
CCOC(=O)c1c(C)[nH]c(C(=O)OCC(=O)N(C)C2CCS(=O)(=O)C2)c1C (stereo not drawn)	0.131
CCN(CC)CCn1c(NCc2cc(OC)ccc2OC)nc2ccccc21	0.342
CCN1CCN(/C=N/c2nc(C)cs2)CC1	0.384
Cn1c(=O)c2cc(S(=O)(=O)Nc3ccc4c(c3)OCO4)ccc2n(C)c1=O	0.257
C=CCCC(=O)Nc1nc(C)c(-c2csc(Nc3cc(OC)ccc3OC)n2)s1	-0.191
O=C(CCCn1c(=S)[nH]c2cc3c(cc2c1=O)OCO3)N1CCc2ccccc2C1	0.596
Cc1cccc(C)c1N(CC(=O)NN=C1CCCCCC1)S(C)(=O)=O	-0.129
CCC(=O)Nc1ccc(C(=O)Nc2cc(C)on2)cc1	-0.13
COC(=O)COc1ccc2c(-c3cccc([N+](=O)[O-])c3)cc(=O)oc2c1	-0.448
CCCCCCCC(=O)Nc1ccc(C(=O)N/N=C/c2cccc([N+](=O)[O-])c2)cc1	-0.161
N#CCC(=O)N1CCn2c1nc1ccccc12	0.13
COc1ccccc1NC(=O)C1CCCN(S(=O)(=O)c2cccc3nsnc23)C1 (stereo not drawn)	0.0406
COc1cc(/C=N/NC(=O)Cc2cccs2)c([N+](=O)[O-])cc1OC	-0.078
COc1ccc(CNC(=O)c2cnc(C)cn2)cc1	-0.00169
CCOC(=O)c1c(NC(=O)CSc2nnc(-c3ccncc3)n2Cc2ccco2)sc(C)c1C	-2.47
O=C(NC(=S)N1CCN(c2ccc(Cl)cc2[N+](=O)[O-])CC1)c1cccs1	active: 9.46
Cc1ccccc1Nc1nc(-c2ccccc2)c(C(=O)Nc2cccnc2)s1	0.177
COc1ccc(CNC(=O)c2csc(Cc3ccc(Cl)cc3)n2)cc1	-0.195
O=C(Nc1ccc(N2CCCCC2)cc1)c1cccnc1Cl	-0.137
Cc1ccc(-c2nnc(-c3cccc(NC(=O)c4cccs4)c3)o2)cc1	-0.196

Compound	z-score
Cc1cc2ccccc2n1CCNC(=O)c1ccccc1	0.104
CCCC(=O)Nc1nc2nc(-c3ccccc3)cc(-c3ccccc3)n2n1	-1.64
CC(c1ccco1)N(C(=O)C12CC3CC(CC(C)(C3)C1)C2)c1ccccn1 (stereo not drawn)	0.0449
O=C1c2ccccc2C(=O)N1CCC1=CCCCC1	0.634
Cc1ccc2cc(C#N)c(N3CCCC3)nc2c1C	-0.233
Cc1noc(C)c1C(=O)N1CCN(C(=O)c2sc3cc(Cl)ccc3c2Cl)CC1	-0.676
C=CCN(CC=C)S(=O)(=O)c1ccc2nc(NC(=O)C(C)C)sc2c1	-0.419
CCc1ccc(-c2cc(C(=O)NCc3ccco3)c3ccccc3n2)s1	-0.222
N#CCCS(=O)(=O)c1ccc(N)cc1	0.046
C=CCNC(=S)NNC(=O)c1ccc(OC(C)C)cc1	-0.659
CCn1c(CNc2ccc(Cl)cc2)nnc1SCc1ccc(C)cc1	0.0857
CCCNC(=O)NC(=O)CSc1nc2cc(C(=O)OC)ccc2c(=O)n1-c1ccccc1	-0.0375
COc1ccc(C(c2c(O)cc(C)oc2=O)c2c(O)cc(C)oc2=O)cc1	-0.45
COc1ccc(C(C)NC(=O)c2ccc([N+](=O)[O-])cc2)cc1OC (stereo not drawn)	-0.249
Cc1cc(N2CCN(c3ccccn3)CC2)n2nc(C)nc2n1	0.267
CS(=O)(=O)Nc1ccccc1C(=O)NCc1ccco1	-0.0873
COC(=O)c1c(NC(C)=O)sc(Cc2ccccc2)c1C	-0.395
Cc1ccc(S(=O)(=O)NC(C)(C)CSc2nncn2C)cc1	-0.274
COc1ccccc1N1CCN(Cc2cccs2)CC1	-0.108
N#C/C(=C\c1ccc(Br)s1)C(=O)N1CCN(c2ccccc2)CC1	-0.178
Cc1ccccc1Cn1c(Cc2ccccc2)nc2ccccc21	0.18
Cc1nnc(N(C(=O)c2cnccn2)c2ccccc2)s1	-0.0539
CN(C)C=C1C(=O)c2ccccc2C1=O	-0.178

Compound	z-score
O=C(COC(=O)CNC(=O)c1ccccc1Cl)Nc1ncc(C(F)(F)F)cc1Cl	-0.573
CCc1ccccc1NC(=O)N[C@H](C(=O)O)C(C)C	0.0781
COc1ccc(-n2c(C)cc(/C=C3\SC(=S)N(Cc4ccco4)C3=O)c2C)cc1	-0.306
COc1ccccc1NS(=O)(=O)c1ccc(C)c(C(N)=O)c1	-0.0928
COc1ccc(C2C(C(=O)N3CCN(c4ccccc4)CC3)c3ccccc3C(=O)N2C)cc1 (stereo not drawn)	-0.145
COc1ccc(CCC(N)=O)cc1OC	0.00699
Cc1cc(Cl)ccc1N=C1N=C(N)c2ccccc21	-1.75
O=C(CSc1c(Cl)cccc1Cl)N1CCC(c2nc3ccccc3s2)CC1	-0.0471
CCSc1cnn(-c2ccccc2)c(=O)c1SCC	-0.503
O=C(CSc1ncn[nH]1)Nc1nc(-c2ccccc2)ns1	-0.512
COc1cc(C(=O)N2CC(C)OC(C)C2)c([N+](=O)[O-])cc1OC (stereo not drawn)	0.377
CSc1ccccc1C(=O)NC1CC2CCC1C2 (stereo not drawn)	0.00508
CCOc1ccc(CC(=O)Nc2c(C(N)=O)oc3ccccc23)cc1OCC	0.355
CCOC(=O)CC(=O)CSCC(=O)Nc1ccc(C)cc1	0.131
COc1ccc(C2CC(=O)N3CN(c4ccccc4F)CSC3=C2C#N)cc1OC (stereo not drawn)	-0.0688
CCOC(=O)c1c(NC(=S)NC(=O)c2cnn(CC)c2)sc2c1CCC(C)C2 (stereo not drawn)	0.488
COC(=O)Nc1c(C)nn(Cc2ccccc2C)c1C	1.05
Cc1ccc(-c2cc(-c3cccc(F)c3)n[nH]2)c(O)c1	-0.16
CCOC(=O)N1CCC(NC(=O)C2CCCN(C(=O)c3cc4sccc4n3C)C2)CC1 (stereo not drawn)	-0.19
CC(Oc1ccc(Cl)cc1Cl)C(=O)NCCCCc1ccccc1 (stereo not drawn)	-0.648
O=C(NCCN1CCOCC1)c1cccc(S(=O)(=O)N2CCCCCC2)c1	-0.077
